Laboratory results taken from publication PMC4336329 (PLoS ONE, 2015).
Hit rate of the full screen: of about 310,000 compounds, about 2,200 (0.71%) showed an effect of 50% or more. Effects have a minus sign here. This is one part of the list.

biological target: human ether-à-go-go-related gene (hERG) potassium channel (human, UniProt Q12809); assay: primary screen, population patch clamp on CHO cells stably expressing hERG
Sequence (Q12809 whole entry, looked up): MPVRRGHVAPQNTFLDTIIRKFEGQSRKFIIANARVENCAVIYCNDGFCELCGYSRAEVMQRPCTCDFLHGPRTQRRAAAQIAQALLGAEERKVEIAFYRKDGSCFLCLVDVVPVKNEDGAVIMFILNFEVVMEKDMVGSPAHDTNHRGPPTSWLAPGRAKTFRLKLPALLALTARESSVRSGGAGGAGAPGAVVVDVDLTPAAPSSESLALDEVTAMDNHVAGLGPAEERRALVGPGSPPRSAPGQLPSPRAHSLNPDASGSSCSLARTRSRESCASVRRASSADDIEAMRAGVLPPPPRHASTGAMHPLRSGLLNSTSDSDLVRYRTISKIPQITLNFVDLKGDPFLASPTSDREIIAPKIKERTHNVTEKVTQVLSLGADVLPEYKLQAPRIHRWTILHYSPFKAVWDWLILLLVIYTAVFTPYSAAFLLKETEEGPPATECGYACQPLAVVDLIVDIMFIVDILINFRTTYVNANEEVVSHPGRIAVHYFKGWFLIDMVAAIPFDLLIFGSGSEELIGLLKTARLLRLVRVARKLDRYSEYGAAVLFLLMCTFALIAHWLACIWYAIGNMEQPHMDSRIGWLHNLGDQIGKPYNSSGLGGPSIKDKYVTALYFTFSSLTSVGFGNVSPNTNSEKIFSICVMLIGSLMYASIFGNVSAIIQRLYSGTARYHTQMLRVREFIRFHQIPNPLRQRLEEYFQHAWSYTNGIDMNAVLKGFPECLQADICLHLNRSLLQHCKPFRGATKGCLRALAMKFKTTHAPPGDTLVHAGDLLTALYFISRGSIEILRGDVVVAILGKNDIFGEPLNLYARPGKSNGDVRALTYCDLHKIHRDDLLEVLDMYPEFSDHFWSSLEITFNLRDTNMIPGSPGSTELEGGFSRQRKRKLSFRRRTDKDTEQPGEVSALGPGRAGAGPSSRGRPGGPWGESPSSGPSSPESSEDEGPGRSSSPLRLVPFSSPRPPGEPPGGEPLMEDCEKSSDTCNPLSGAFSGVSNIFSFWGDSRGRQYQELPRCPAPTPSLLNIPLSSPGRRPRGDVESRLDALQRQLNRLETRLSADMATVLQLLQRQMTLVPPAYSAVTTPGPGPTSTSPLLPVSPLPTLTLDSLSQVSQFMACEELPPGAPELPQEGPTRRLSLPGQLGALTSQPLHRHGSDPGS

SMILES | hERG current change (%, negative = inhibition) at 1uM [%]
CCCCN(CC)CCCNC(=O)c1ccc(CSc2nc3ccncc3[nH]2)cc1 | 9.93
COc1ccc(/C=N/N2CCN(c3ccncc3S(=O)(=O)N3CCCCC3)CC2)cc1 | 9.52
Cn1cc(SCC(=O)O)c2ccccc21 | 10.6
COc1cccc(CNC(=O)Cn2c(=O)c3cccn3c3ccccc32)c1 | 13.6
CCCCN(CC)C(=O)/C=C/c1cccc([N+](=O)[O-])c1 | -29.6
COc1ccc(NC(=O)COc2ccc(/C=N/O)cc2OC)cc1 | 7.08
CC(=O)NC(CC(=O)Nc1ccc(S(=O)(=O)NC2=NCCCCC2)cc1)c1ccccc1 (centres unmarked) | 8.2
COc1ccc(NC(=O)CSc2nc3sc(C)c(C)c3c(=O)n2Cc2ccco2)cc1 | 13.3
Cc1ccc(C)c(S(=O)(=O)NC(Cc2c[nH]c3ccccc23)C(=O)O)c1 (centres unmarked) | 17.2
O=c1cnnc(Nc2ccc(Nc3ccccc3)cc2)[nH]1 | 18.1
CC(C)Cn1c(=O)c2c(nc3n2CCS3)n(C)c1=O | 6.94
O=C(NC(=S)Nc1ccccc1Cl)c1cncc(Br)c1 | 12.1
Cc1nc(C(=O)NCCCO)cc2c1[nH]c1ccccc12 | 17.7
CCOC(=O)c1ccccc1NC(=O)Cn1cnc2c(oc3ccccc32)c1=O | 18.3
CCOC(=O)c1ccc(N(CC(=O)NC2CCCC2)C(=O)CNC(=O)c2ccco2)cc1 | 3.25
CC(C(=O)N1c2ccccc2CC1C)N1CCN(S(=O)(=O)c2ccccc2F)CC1 (centres unmarked) | 0.423
O=C1COc2ccc(C(=O)COC(=O)Cc3ccc(Cl)cc3)cc2N1 | 6.51
O=C(NCc1ccccc1Cl)C1CCC(=O)N(C2CCCC2)C1 (centres unmarked) | 8.91
CCNC(=O)CP(=O)(c1ccccc1)c1ccccc1 | 7.35
O=C(CCn1c(=O)c2ccccc2n(Cc2cccnc2)c1=O)NCc1ccc2c(c1)OCO2 | 9.51
COCCCNC(=O)CN1CCN(Cc2ccc(Cl)cc2)C1=O | 5.07
O=C(CSc1nnc(NC(=O)C2CCCCC2)s1)NCc1ccco1 | 2.37

SMILES | hERG current change (%, negative = inhibition) at 1uM [%]
Cc1ccccc1NC(=O)C1CCCN(C(=O)Nc2ccc(F)cc2)C1 (centres unmarked) | 5.81
COc1ccc(NC2=Nc3cccc4cccc2c34)cc1 | 1.92
ON1C2CCCCC2N(O)C1c1c(F)c(F)c(F)c(F)c1F (centres unmarked) | 17.7
CCn1c(Cc2ccccc2)nnc1SCC(=O)Nc1cc(C)on1 | 15.8
O=C(CCNC(=O)c1ccc([N+](=O)[O-])cc1)Nc1ccccc1N1CCOCC1 | -4.23
Cc1oc(-c2cccc(C(F)(F)F)c2)nc1CN1CCOCC1 | 9.03
COc1cc(NS(=O)(=O)c2ccc(Br)s2)cc(OC)c1 | 5.29
Cc1ccc(C)c(OC(C)C(=O)Nc2nccs2)c1 (centres unmarked) | 11.5
CN(C)C(=O)c1nnsc1Sc1ccc(Cl)cc1 | 12.9
Cc1cc(NC(=O)CCCSc2nc(-c3ccco3)cc(C(F)(F)F)n2)no1 | 13.7
O=C(Nn1c(-c2ccncc2)nc2ccccc2c1=O)c1ccc([N+](=O)[O-])cc1Cl | 7.96
Cc1nn(C)cc1S(=O)(=O)N1CCN(c2ccccc2)CC1 | 0.0132
CC1=C(C(=O)OCc2ccccc2)C(c2ccc(N3CCOCC3)cc2)NC(=O)N1 (centres unmarked) | 0.721
Cc1ccc2oc(=O)c3cnn(CC(=O)N4CCCCCC4)c3c2c1 | -1.04
COC(=O)C1=C(c2ccc(Cl)c(C(F)(F)F)c2)C[C@@H]2CC[C@H]1N2C(=O)NCC1CC1 | 13.9
O=c1cc(-c2ccccc2Cl)oc2c(NS(=O)(=O)c3cc(Cl)cc(Cl)c3O)ccc(O)c12 | 18.4
Cc1ccccc1OCC(=O)NCC(=O)N/N=C/c1ccc(Br)o1 | 13.1
O=C(CSc1ncnc2ccccc12)Nc1cc(S(=O)(=O)N2CCCCC2)ccc1Cl | 4.42
COc1ccc(-c2cc3c(=O)n(CC(=O)N4CCCC4)ncn3n2)cc1 | 3.93
Cc1cccc(N2CCN(C(=O)C3CCN(S(=O)(=O)c4c(C)noc4C)CC3)CC2C)c1 (centres unmarked) | 13.1
Oc1ccccc1C1NN=C(c2ccccc2)S1 (centres unmarked) | 8.06
O=C(CCl)Nc1nc(-c2ccco2)c(-c2ccco2)s1 | 21.1
